This is one part of the list. One pool of 16,384 single-stranded DNAs met each Rep nickase domain in vitro (1 h at 37 °C, 3 µM enzyme); the outer parts of the 90-letter strands are left off. Numbers give uncut DNA relative to the enzyme-free pool, as log2; more negative means more cut, near 0 not cut, and no call is made. The scaling is to total reads; where an enzyme cuts many sequences, the uncut ones exceed 0.

The experiment deals with T1, Rep nickase domain of tomato golden mosaic virus.
T1 sequence (protein, residues 1-124, tag omitted): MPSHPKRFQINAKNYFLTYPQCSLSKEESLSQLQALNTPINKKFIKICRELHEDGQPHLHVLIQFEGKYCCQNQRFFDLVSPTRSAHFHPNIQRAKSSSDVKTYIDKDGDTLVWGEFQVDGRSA
Kind of experiment: uncleaved DNA left, log2 of reads against the no-enzyme library (log2 ratio); higher = less cleavage (more negative = more Rep cleavage of the k-mer); sequences stand for … in CTCGTCCG…ACCGGAGA
On the procedure:
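A pool of 90-nt single-stranded DNAs with seven random bases just before the constant AC of the nick site (name = the seven bases) was cut by 3 µM recombinant His6-SUMO-tagged Rep nickase domain (300 nM DNA, 50 mM HEPES pH 8.0, 50 mM NaCl, 1 mM MnCl2, 1 h, 37 °C, three replicates). Uncut DNA was amplified and sequenced.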
As to TTTTGGT, the “uncleaved DNA left (log2)” value is -0.0316.
The value for CAGCCTT was 0.147.
As to ATTGCCG, the “uncleaved DNA left (log2)” value was -0.0648.
The value for CGGTCCG was -0.0419; that for CTATTGC was -0.112; that for GATGTCC was -0.194.
In the case of ATGCTCC it was -0.147; in that of ACGCGAG, -0.00776.
In the case of TATAGAC it was 0.0528; in that of CAGCCCG, -0.15.
As to CCATCAT, the “uncleaved DNA left (log2)” value was 0.0289.
The value for CCATTAT was 0.0584.
As to ACTGCTC, the “uncleaved DNA left (log2)” value was -0.0146.
The value for AAGTGTC was -0.00621; that for GCCAGCC was 0.0021.
The value for TGAACAA was 0.0692; that for TCACACA was 0.0193; that for GACTGCG was -0.033.
In the case of AGTCGCT it was 0.00731.
Take AACTTAT: the “uncleaved DNA left (log2)” value was 0.0299.
In the case of AGGCCTC it was 0.00545.
In the case of CGTTATT it was -0.158.
Take TCTGGCG: the “uncleaved DNA left (log2)” value stood at 0.0989.
Consider ACATTCT, for which the “uncleaved DNA left (log2)” value was -0.0256.
Consider TAACATG, for which the “uncleaved DNA left (log2)” value was 0.11.
The value for ATACGGA was 0.108; that for AGGATCA was 0.0563; that for GTCTGAT was 0.0554.
Turning to GACTACG, the “uncleaved DNA left (log2)” value is -0.00242.
For the sequence GTTGCAA, the “uncleaved DNA left (log2)” value is 0.195.
In the case of TCTATGC it was 0.112; in that of AACAAGA, -0.0276; in that of CTAATAA, 0.0805.
In the case of GCCGTCC it was 0.0509; in that of GACACGG, 0.034.
As for AATTAGG, the “uncleaved DNA left (log2)” value was 0.164.
The value for TCTGCGT was -0.216; that for AAGTTCC was -0.0476.
For the sequence TATGTAT, the “uncleaved DNA left (log2)” value is -0.0426.
In the case of GTTTGGG it was 0.022.
